Laboratory results as given in patent publication US20080167219A1 (published 2008).

T1: factor VIIIa (UniProt P00451 20-2351, limits assumed)
T1 construct: also called FVIIIa
T1 sequence (looked up): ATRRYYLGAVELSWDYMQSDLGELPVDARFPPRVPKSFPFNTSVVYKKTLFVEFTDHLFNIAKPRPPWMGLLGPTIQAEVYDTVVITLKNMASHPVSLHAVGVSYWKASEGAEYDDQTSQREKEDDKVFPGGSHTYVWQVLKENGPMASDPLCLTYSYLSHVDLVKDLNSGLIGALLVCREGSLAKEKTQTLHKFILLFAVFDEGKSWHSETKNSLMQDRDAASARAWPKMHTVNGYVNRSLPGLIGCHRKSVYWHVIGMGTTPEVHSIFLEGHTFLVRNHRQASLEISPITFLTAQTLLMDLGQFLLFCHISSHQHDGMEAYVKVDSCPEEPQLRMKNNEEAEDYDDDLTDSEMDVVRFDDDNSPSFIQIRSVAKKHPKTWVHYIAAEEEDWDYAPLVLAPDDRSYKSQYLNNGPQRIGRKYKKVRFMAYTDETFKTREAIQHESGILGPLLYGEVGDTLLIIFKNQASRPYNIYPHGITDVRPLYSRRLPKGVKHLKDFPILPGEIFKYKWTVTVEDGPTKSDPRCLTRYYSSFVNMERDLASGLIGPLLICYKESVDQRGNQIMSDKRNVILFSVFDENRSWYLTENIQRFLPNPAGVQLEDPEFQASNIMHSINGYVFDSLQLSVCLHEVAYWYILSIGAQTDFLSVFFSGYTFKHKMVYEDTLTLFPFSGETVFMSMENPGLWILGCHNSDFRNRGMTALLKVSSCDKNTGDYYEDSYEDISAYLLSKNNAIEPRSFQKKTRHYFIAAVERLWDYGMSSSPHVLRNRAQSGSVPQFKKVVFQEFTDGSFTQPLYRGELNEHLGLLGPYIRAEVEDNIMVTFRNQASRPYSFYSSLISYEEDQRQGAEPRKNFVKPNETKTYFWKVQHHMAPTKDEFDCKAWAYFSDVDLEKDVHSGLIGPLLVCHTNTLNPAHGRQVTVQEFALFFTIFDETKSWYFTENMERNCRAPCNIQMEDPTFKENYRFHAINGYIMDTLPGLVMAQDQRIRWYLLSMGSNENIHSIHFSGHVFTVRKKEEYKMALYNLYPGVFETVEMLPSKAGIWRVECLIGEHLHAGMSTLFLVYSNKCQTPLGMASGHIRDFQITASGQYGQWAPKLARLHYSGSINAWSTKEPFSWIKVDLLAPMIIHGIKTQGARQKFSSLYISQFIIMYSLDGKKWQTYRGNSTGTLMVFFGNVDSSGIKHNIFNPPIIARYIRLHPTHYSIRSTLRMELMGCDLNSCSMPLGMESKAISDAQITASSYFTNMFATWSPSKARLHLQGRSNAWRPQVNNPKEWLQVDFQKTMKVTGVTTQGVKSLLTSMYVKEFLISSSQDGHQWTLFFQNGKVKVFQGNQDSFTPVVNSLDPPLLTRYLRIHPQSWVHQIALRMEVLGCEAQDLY

B1: recombinant wild type human factor IX (IX-7) (enzyme)
chain: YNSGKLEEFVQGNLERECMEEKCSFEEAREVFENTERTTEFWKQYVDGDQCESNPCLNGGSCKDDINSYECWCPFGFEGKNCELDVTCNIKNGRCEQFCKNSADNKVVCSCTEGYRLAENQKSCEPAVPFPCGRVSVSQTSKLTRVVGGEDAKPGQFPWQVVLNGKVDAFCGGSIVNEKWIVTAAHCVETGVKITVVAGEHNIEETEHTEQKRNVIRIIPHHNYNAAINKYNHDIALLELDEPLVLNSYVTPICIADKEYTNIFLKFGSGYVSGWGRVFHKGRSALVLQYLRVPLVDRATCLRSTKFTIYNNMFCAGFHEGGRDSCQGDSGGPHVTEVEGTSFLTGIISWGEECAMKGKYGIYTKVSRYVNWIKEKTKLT
notes: Expressed in human 293 cells and purified; also called wild type factor IX
B2: recombinant human factor IX IX-5, double alanine replacement at residues 277 plus 338 (enzyme)
chain: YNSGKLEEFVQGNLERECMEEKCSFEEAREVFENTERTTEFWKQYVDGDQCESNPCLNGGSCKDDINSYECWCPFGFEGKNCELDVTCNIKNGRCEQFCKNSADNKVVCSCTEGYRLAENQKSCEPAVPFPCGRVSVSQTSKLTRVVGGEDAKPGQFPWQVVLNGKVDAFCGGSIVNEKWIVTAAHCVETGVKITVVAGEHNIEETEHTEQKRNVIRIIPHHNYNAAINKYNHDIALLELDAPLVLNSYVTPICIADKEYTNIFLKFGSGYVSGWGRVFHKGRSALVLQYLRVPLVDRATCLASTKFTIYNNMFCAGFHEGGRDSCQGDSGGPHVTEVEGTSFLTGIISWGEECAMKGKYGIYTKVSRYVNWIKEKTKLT
B3: recombinant human factor IX IX-1, single alanine replacement at residue 86 (enzyme)
chain: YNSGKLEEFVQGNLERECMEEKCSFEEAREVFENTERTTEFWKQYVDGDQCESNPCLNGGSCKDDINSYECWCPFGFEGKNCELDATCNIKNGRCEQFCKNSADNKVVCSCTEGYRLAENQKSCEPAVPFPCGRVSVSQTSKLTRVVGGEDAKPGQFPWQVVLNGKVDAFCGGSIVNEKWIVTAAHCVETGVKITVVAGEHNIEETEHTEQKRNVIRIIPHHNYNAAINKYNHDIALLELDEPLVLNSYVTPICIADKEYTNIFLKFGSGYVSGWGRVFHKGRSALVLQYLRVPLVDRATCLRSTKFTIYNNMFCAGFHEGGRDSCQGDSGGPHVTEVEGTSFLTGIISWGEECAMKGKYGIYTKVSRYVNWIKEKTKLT
B4: recombinant human factor IX IX-4, double alanine replacement at residues 86 plus 338 (enzyme)
chain: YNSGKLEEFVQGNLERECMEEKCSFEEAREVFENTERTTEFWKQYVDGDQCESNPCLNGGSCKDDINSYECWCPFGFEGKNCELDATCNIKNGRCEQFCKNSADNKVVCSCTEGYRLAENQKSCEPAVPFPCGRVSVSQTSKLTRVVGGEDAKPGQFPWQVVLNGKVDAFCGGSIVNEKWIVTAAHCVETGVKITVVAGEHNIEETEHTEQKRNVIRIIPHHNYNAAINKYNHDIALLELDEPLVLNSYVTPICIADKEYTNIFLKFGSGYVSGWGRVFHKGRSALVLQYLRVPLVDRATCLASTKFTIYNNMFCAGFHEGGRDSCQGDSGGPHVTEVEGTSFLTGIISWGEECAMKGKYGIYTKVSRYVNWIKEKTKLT
B5: recombinant human factor IX IX-2, single alanine replacement at residue 277 (enzyme)
chain: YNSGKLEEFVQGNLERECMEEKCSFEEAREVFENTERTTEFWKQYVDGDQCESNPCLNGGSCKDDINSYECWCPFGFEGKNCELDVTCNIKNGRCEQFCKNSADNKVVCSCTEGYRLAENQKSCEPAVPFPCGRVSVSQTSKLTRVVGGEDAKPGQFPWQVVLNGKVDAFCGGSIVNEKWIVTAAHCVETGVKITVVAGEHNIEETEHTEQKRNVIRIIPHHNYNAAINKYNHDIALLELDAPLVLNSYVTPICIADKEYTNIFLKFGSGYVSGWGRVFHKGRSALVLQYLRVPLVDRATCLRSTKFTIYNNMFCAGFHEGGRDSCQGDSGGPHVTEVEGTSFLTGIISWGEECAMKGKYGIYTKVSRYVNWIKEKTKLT
B6: recombinant human factor IX IX-8, single alanine replacement at residue 338 (enzyme)
chain: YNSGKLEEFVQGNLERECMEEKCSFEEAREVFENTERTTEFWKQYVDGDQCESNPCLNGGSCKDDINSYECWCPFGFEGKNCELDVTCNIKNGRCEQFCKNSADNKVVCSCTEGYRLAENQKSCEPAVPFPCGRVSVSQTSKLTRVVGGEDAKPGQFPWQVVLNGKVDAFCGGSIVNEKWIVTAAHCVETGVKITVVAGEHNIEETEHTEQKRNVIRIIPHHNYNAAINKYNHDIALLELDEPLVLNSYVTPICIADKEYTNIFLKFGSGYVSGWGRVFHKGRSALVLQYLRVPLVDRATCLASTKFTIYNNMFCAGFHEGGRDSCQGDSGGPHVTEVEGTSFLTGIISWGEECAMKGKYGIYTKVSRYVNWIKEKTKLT
B7: recombinant human factor IX IX-3, double alanine replacement at residues 86 plus 277 (enzyme)
chain: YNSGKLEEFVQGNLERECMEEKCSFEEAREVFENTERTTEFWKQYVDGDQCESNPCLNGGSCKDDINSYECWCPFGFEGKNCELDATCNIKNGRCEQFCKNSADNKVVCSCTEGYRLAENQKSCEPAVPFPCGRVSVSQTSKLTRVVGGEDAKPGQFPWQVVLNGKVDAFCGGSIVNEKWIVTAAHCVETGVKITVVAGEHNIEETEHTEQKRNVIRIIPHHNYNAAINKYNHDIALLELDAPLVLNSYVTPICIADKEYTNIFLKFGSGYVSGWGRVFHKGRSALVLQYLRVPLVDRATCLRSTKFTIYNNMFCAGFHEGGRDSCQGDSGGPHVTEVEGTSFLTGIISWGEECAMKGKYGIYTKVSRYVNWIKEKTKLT
B8: recombinant human factor IX IX-6, triple alanine replacement at residues 86, 277 and 338 (enzyme)
chain: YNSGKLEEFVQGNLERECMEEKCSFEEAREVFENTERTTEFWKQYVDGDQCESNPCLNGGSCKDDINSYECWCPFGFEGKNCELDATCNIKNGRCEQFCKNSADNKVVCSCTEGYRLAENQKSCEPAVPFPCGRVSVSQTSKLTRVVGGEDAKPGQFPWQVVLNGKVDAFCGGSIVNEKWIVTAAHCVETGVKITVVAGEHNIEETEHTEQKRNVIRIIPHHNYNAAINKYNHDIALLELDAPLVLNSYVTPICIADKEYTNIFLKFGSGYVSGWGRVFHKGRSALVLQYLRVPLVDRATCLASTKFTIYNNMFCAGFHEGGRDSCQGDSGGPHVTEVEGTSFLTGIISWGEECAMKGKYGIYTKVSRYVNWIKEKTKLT
notes: also called factor IX-6

Assays:
factor VIIIa [1] = target: T1, factor VIIIa; assay: derived for 0.25 nM factor IXa and 0.4 nM factor VIIIa
factor VIIIa [2] = target: T1, factor VIIIa; assay: apparent Kd from intrinsic tenase activity (factor Xa generation) at limiting factor VIIIa (0.1 nM), factor IXa 0-15 nM, PCPS, Ca2+
Protocol: (§1) Binding experiments were performed by monitoring the intrinsic tenase activity at limiting concentrations of factor VIIIa. Twenty-five microliters of freshly prepared factor VIIIa (0.4 nM) were incubated with 25 μl of different concentrations of wild type or mutant factor IXa (0-20 nM) to form the intrinsic tenase complex. Activity of the intrinsic tenase complex formed by binding of factor VIIIa to factor IXa was then measured by the addition of 50 μl of a mixture of factor X and Spectrozyme FXa in a reaction buffer containing TBS/Ca/PCPS/BSA. Final concentrations were factor VIIIa, 0.1 nM, PCPS, 40 μM, factor X, 100 nM, Spectrozyme FXa, 0.5 mM, and factor IXa, 0˜15 nM. Experiments were performed in duplicate for 3 independent reactions, and curves were fitted using all data points. The Kd values were derived by calculations according to the following equation as described previously (Chang Y J, et al., Journal of Biological Chemistry. 2002; 277:25393).

factor VIIIa [3] = target: T1, factor VIIIa; assay: apparent Kd from intrinsic tenase activity at limiting factor VIIIa
Protocol: as §1

factor VIIIa [4] = target: T1, factor VIIIa; assay: apparent Kd from intrinsic tenase activity at limiting factor VIIIa; this end of the range is tied to IX-2 by the 2nd table, row 21, column 7 (1.2♯)
Protocol: as §1

factor VIIIa [5] = target: T1, factor VIIIa; assay: apparent Kd from intrinsic tenase activity at limiting factor VIIIa; this end of the range is tied to IX-3 by the 2nd table, row 23, column 7 (1.9♯)
Protocol: as §1

| Binder | Enzyme (concentration of factor IXa-VIIIa complex) (factor VIIIa [1]) [nM] | Kd (factor VIIIa [3]) [nM] | further results |
| --- | --- | --- | --- |
| B1 | 0.033 |  | Kd (factor VIIIa [2]): 2.44 nM |
| B2 | 0.114 | 0.34 |  |
| B3 | 0.049 |  |  |
| B4 | 0.106 | 0.4 |  |
| B5 | 0.056 |  | Kd (factor VIIIa [4]): 1.2 nM |
| B6 | 0.052 |  |  |
| B7 | 0.039 |  | Kd (factor VIIIa [5]): 1.95 nM |
| B8 | 0.144 | 0.19 | fold difference in Kd against IX-7 (factor VIIIa [3]): 10 fold |
